Consider 19 compounds from PubChem BioAssay AID1745853 (National Center for Advancing Translational Sciences (NCATS), 2022).

What all share (test): Primary Screen for Target Class Profiling of Small Molecule Inhibitors of Methyltransferases
Assay [1] concerns the target Glycine N-methyltransferase (Homo sapiens) (UniProt Q14749). Conditions: purified enzyme, MTase-Glo SAH luminescence; measured here: GNMT inhibition; at 40 µM; stronger effect = lower value. In short, it runs like this:
(§1)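 Each enzyme was reacted with SAM and its substrate, with compounds tested once at 40 uM; SAH formed was read by MTase-Glo luminescence.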

Assay [2] has as its target Guanidinoacetate N-methyltransferase (Homo sapiens) (UniProt Q14353). The conditions noted are these: purified enzyme, MTase-Glo SAH luminescence; measured here: GAMT inhibition; at 40 µM; stronger effect = lower value. In short, it runs like this: as §1
Assay [3] has as its target Histamine N-methyltransferase (Homo sapiens) (UniProt P50135). The conditions noted are these: purified enzyme, MTase-Glo SAH luminescence; measured here: HNMT inhibition; at 40 µM; stronger effect = lower value. The procedure, abridged: as §1
For assay [4], the target named is Nicotinamide N-methyltransferase (Homo sapiens) (UniProt P40261). Conditions: purified enzyme, MTase-Glo SAH luminescence; measured here: NNMT inhibition; at 40 µM; stronger effect = lower value. The procedure, abridged: as §1
The target in assay [5] is Phenylethanolamine N-methyltransferase (Homo sapiens) (UniProt P11086). The conditions noted are these: purified enzyme, MTase-Glo SAH luminescence; measured here: PNMT inhibition; at 40 µM; stronger effect = lower value. The procedure, abridged: as §1

“And” between values parts separate entries of the source, which are not always exact repeats. Equal values may be shown once. Some of the results follow. Further columns of the screen follow, without active or inactive calls.
% is set by controls: 0 for no effect and ±100 for the full control effect.

Turning to `Cc1cc(C)n(CCC(=O)N2CCC(Cc3nncn3-c3ccccc3)CC2)n1`, the activity change, negative = inhibition is 0.418% in assay [1]; 0.94% in assay [2]; 3.05% in assay [3]; 1.94% in assay [4]; -11.6% in assay [5].
The corresponding values for `O=C(NCc1cccc(F)c1)N1CCC(n2cnnc2C2CC2)C1` (centres undefined) are -1.51%, -4.9%, 0.628%, -9.21% and -6.88%.
On to `CNc1cc(NS(=O)(=O)c2ccc(N)cc2)nc(NC)n1`, for which the activity change, negative = inhibition in assay [1] was -10.4%; in assay [2], 9.39%; in assay [3] it was 7.8%; in assay [4], -9.93%; in assay [5], -6.25%.
The like results for `CCOc1ccc(N(C(=O)c2ccncc2)S(=O)(=O)c2ccc3c(c2)n(C)c(=O)n3C)cc1` were, in that order, 3.05%, 4.63%, 9.86%, -1.45% and 3.13%.
With `Cc1cc2c(cc3n2CC(C(=O)NC2CCCCC2)(c2ccccc2)N(Cc2ccccc2)C3=O)o1` (centres undefined), the activity change, negative = inhibition in assay [1] is -4.31%; in assay [2] it was -1.58%; in assay [3], -6.02%; in assay [4], -7.79%; in assay [5], -7.87%.
The like results for `O=[S+]([O-])(c1cccnc1)c1nnn2c1nc(NCc1ccncc1)c1ccccc12` were, in that order, -7.1%, -0.469%, 0.123%, -1.59% and 5.16%.
As to `Cc1ccc(Cl)cc1N1C(=O)c2cc3occc3n2CC1(C)C(=O)NC1CCCCC1` (centres undefined), the activity change, negative = inhibition is -11% in assay [1]; 0% in assay [2]; -24.5% in assay [3]; -15.3% in assay [4]; -10.5% in assay [5].
`CCC(Cc1ccccc1)NC(=O)Cn1c(=O)oc2cc(S(=O)(=O)NCc3ccccc3)ccc21` (centres undefined): the activity change, negative = inhibition in assay [1] was 13.6%; in assay [2], 1.44%; in assay [3] it was 12.5%; in assay [4], 0.973%; in assay [5] it was 9.55%.
The corresponding values for `CCc1ccc(-c2cc3n(n2)CC(C)(C(=O)NC2CCCCC2)N(CCN(CC)CC)C3=O)cc1` (centres undefined) are 4.59%, 1.46%, 3.98%, 4.93% and -0.365%.
`Cc1ccc(C(=O)NCCCCCC(=O)Nc2ccccc2N)cc1`: the activity change, negative = inhibition in assay [1] was -16.2%; in assay [3], -5.32%; in assay [4], -7.51%; in assay [5] it was 23.3%.
For the compound `CCCn1c(=O)c2cc(F)ccc2n2c(SCc3cccc(C)c3)nnc12`, the activity change, negative = inhibition in assay [1] is -16%; in assay [2], 2.82%; in assay [3], 5.93%; in assay [4], -15.1%; in assay [5], 1.73%.
The corresponding values for `CCN1C(=O)c2cc(C(=O)N3CCN(c4cc(Cl)ccc4C)CC3)nn2CC1(C)C(=O)NC1CCCC1` (centres undefined) are 6.43%, 4.5%, 5.83%, 1.72% and 6.18%.
On to `Cc1ccc(OCc2nc(C3CCCCN3C(=O)c3ccncc3)no2)cc1` (centres undefined), for which the activity change, negative = inhibition in assay [1] was -4.88%; in assay [2], -8.21%; in assay [3] it was -2.71%; in assay [4], -16.7%; in assay [5], 6.87%.
The like results for `Cc1nc2sc(C(=O)NCc3ccncc3)c(N)c2c(C)c1Cl` were, in that order, -19.6%, 4.38%, -13.9%, -16.6% and -8.4%.
On to `N#Cc1ccc2[nH]c(O)c(-c3ccc(CN4CCOCC4)cn3)c2c1`, for which the activity change, negative = inhibition in assay [1] was -6.1% and -8.99%; in assay [2], -5.05% and 2.95%; in assay [3] it was -3.66% and 9.13%; in assay [4], -16.4% and -6.73%; in assay [5], -5.36% and 6.7%.
As to `CC(C)c1ccc(S(=O)(=O)NCCn2c(CCc3ccccc3)nc3ccccc32)cc1`, the activity change, negative = inhibition in assay [1] was -5.67%; in assay [2], 0%; in assay [3] it was -0.553%; in assay [4], -3.68%; in assay [5], 2.67%.
The like results for `O=C(CC1C(=O)Nc2ccccc21)OC[C@H]1O[C@@H](OCCc2ccc(O)cc2)[C@H](O)[C@@H](O)[C@@H]1O` (some centres undefined) were, in that order, -3.13%, 1.02%, 10.2%, -11.6% and -5.32%.
For the compound `CC(=O)NCc1nnc2n1C(C(=O)Nc1cccc(Cl)c1)CC2` (centres undefined), the activity change, negative = inhibition in assay [1] is -1.19%; in assay [2], 3.06%; in assay [3] it was 1.27%; in assay [4], -0.233%; in assay [5], 2.23%.
As to `CC1CCC(NC(=O)c2cc3n(n2)CC(C)(C(=O)NC2CCCCC2)N(C)C3=O)CC1` (centres undefined), the activity change, negative = inhibition in assay [1] stood at 8.87%; in assay [2] it was 4.06%; in assay [3], 7.78%; in assay [4] it was 10.1%; in assay [5] it was 3%.
